The IC50 comes from the fitted curve, where viability falls to half of the control; fits outside the tested doses are given as limits. For AUC the same curve is integrated over the 256-fold range of doses and scaled to a fraction; it is 1 without any effect and falls as sensitivity rises. For part of these data: Any top dose called inferred is not printed in the source and was worked back from the curve model.
Columns and labels:
Experiment in all cases: Viability of human cancer cell lines after 72 h of drug (GDSC screen)
Methotrexate = compound: CN(Cc1cnc2nc(N)nc(N)c2n1)c1ccc(C(=O)N[C@@H](CCC(=O)O)C(=O)O)cc1 [Methotrexate]; settings: top dose 0.2 µM
Protocol: (§1)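 Human cancer cell lines in 384-well plates, medium with 10% serum, drug for 72 h over a 256-fold dose range (nine 2-fold or five 4-fold steps up to the top dose). Adherent lines were fixed and stained with the nucleic acid dye Syto60, suspension lines read with resazurin; signal relative to control wells, capped at 0 and 100%. One two-parameter sigmoid per drug and line, fitted in a mixed model over all curves with the slope shared within a line.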

SN-38 = compound: CCc1c2c(nc3ccc(O)cc13)-c1cc3c(c(=O)n1C2)COC(=O)[C@]3(O)CC [SN-38]; settings: top dose 0.05 µM; top dose inferred
Protocol: as §1

Axitinib = compound: CNC(=O)c1ccccc1Sc1ccc2c(/C=C/c3ccccn3)n[nH]c2c1 [Axitinib]; settings: top dose 2 µM
Protocol: as §1

Dabrafenib = compound: CC(C)(C)c1nc(-c2cccc(NS(=O)(=O)c3c(F)cccc3F)c2F)c(-c2ccnc(N)n2)s1 [Dabrafenib]; settings: top dose 10 µM
Protocol: as §1

Cell Line | AUC (Methotrexate) | IC50 (Methotrexate) [nM] | AUC (SN-38) | IC50 (SN-38) [nM] | AUC (Axitinib) | IC50 (Axitinib) [nM] | AUC (Dabrafenib) | IC50 (Dabrafenib) [nM]
EB2 (Burkitt lymphoma, suspension) | 0.751 | 60.5 | 0.501 | 3.14 | 0.99 | > 2000 | 0.984 | > 10000
EB-3 (Burkitt lymphoma, suspension) | 0.854 | > 200 | 0.815 | 33.3 | 0.984 | > 2000 | 0.967 | > 10000
EGI-1 (biliary tract, adherent) | 0.982 | > 200 | 0.744 | 19.7 | 0.941 | > 2000 | 0.916 | > 10000
EJM (lymphoid neoplasm, semi-adherent) | 0.989 | > 200 | 0.838 | 26.4 | 0.992 | > 2000 | 0.991 | > 10000
EW-13 (Ewing sarcoma, suspension) | 0.975 | > 200 | 0.746 | 17.3 | 0.983 | > 2000 | 0.983 | > 10000
Farage (B-cell lymphoma, suspension) | 0.901 | 177 | 0.992 | > 50 | 0.993 | > 2000 | 0.983 | > 10000
GRANTA-519 (B-cell lymphoma, suspension) | 0.928 | > 200 | 0.533 | 3.81 | 0.958 | > 2000 | 0.99 | > 10000
GT3TKB (stomach, adherent) | 0.977 | > 200 | 0.284 | 0.838 | 0.945 | > 2000 | 0.962 | > 10000
H9 (lymphoid neoplasm, suspension) | 0.419 | 7.85 | 0.443 | 2.24 | 0.977 | > 2000 | 0.951 | > 10000
HAL-01 (lymphoblastic leukaemia, suspension) | 0.255 | 2.76 | 0.457 | 2.42 | 0.965 | > 2000 | 0.602 | 1150
HGC-27 (stomach, adherent) | 0.971 | > 200 | 0.479 | 2.77 | 0.901 | 1900 | 0.967 | > 10000
HH (T-cell leukaemia, suspension) | 0.649 | 37.4 | 0.754 | 22 | 0.94 | > 2000 | 0.846 | > 10000
HSC-39 (stomach, suspension) | 0.979 | > 200 | 0.944 | > 50 | 0.549 | 167 | 0.974 | > 10000
HT (B-cell lymphoma, suspension) | 0.775 | 72.4 | 0.872 | 41.1 | 0.987 | > 2000 | 0.978 | > 10000
HT-1376 (bladder, adherent) | 0.981 | > 200 | 0.936 | > 50 | 0.964 | > 2000 | 0.933 | > 10000
Hep 3B2_1-7 (liver, adherent) | 0.985 | > 200 | 0.897 | > 50 | 0.808 | 1030 | 0.925 | > 10000
JEKO-1 (B-cell lymphoma, suspension) | 0.578 | 20.2 | 0.429 | 2.02 | 0.884 | > 2000 | 0.932 | > 10000
JIMT-1 (breast, adherent) | 0.984 | > 200 | 0.876 | > 50 | 0.901 | > 2000 | 0.847 | 8220
JM1 (B-cell lymphoma, suspension) | 0.826 | 98.5 | 0.226 | 0.579 | 0.946 | > 2000 | 0.884 | 8170
KARPAS-299 (anaplastic large cell lymphoma, suspension) | 0.445 | 9.09 | 0.723 | 11.8 | 0.946 | > 2000 | 0.979 | > 10000

Cell Line | AUC (Methotrexate) | IC50 (Methotrexate) [nM] | AUC (SN-38) | IC50 (SN-38) [nM] | AUC (Axitinib) | IC50 (Axitinib) [nM] | AUC (Dabrafenib) | IC50 (Dabrafenib) [nM]
KASUMI-1 (acute myeloid leukaemia, suspension) | 0.826 | 121 | 0.785 | 21.5 | 0.225 | 19.7 | 0.681 | 2010
KM-H2 (Hodgkin lymphoma, suspension) | 0.967 | > 200 | 0.934 | > 50 | 0.988 | > 2000 | 0.987 | > 10000
KMH-2 (thyroid, adherent) | 0.885 | 177 | 0.854 | 32.9 | 0.932 | > 2000 | 0.73 | 2590
KMRC-20 (kidney, adherent) | 0.695 | 44.5 | 0.829 | 31.7 | 0.978 | > 2000 | 0.934 | > 10000
KNS-62 (lung squamous cell carcinoma, adherent) | 0.962 | > 200 | 0.608 | 7.05 | 0.972 | > 2000 | 0.923 | > 10000
KOPN-8 (B-cell leukaemia, suspension) | 0.568 | 18.7 | 0.434 | 2.12 | 0.933 | > 2000 | 0.985 | > 10000
KY821 (leukaemia, suspension) | 0.975 | > 200 | 0.751 | 14.6 | 0.927 | > 2000 | 0.991 | > 10000
L-363 (myeloma, suspension) | 0.532 | 15.1 | 0.93 | > 50 | 0.966 | > 2000 | 0.989 | > 10000
LB2241-RCC (kidney, adherent) | 0.984 | > 200 | 0.555 | 4.49 | 0.954 | > 2000 | 0.572 | 1010
LCLC-97TM1 (large cell lung carcinoma, adherent) | 0.894 | > 200 | 0.561 | 4.65 | 0.941 | > 2000 | 0.911 | > 10000
LP-1 (myeloma, suspension) | 0.988 | > 200 | 0.978 | > 50 | 0.993 | > 2000 | 0.989 | > 10000
MC116 (B-cell lymphoma, suspension) | 0.99 | > 200 | 0.959 | 45.8 | 0.999 | > 2000 | 0.999 | > 10000
MDA-MB-361 (breast, adherent) | 0.986 | > 200 | 0.95 | > 50 | 0.981 | > 2000 | 0.983 | > 10000
ME-1 (acute myeloid leukaemia, suspension) | 0.982 | > 200 | 0.969 | > 50 | 0.98 | > 2000 | 0.947 | > 10000
MEL-HO (melanoma, adherent) | 0.958 | > 200 | 0.686 | 10.4 | 0.986 | > 2000 | 0.068 | < 39.1
MKN45 (stomach, adherent) | 0.894 | > 200 | 0.758 | 21.7 | 0.918 | > 2000 | 0.941 | > 10000
MOLP-8 (myeloma, suspension) | 0.953 | > 200 | 0.572 | 4.86 | 0.953 | > 2000 | 0.832 | 6030
NALM-6 (B-cell leukaemia, suspension) | 0.659 | 31.8 | 0.672 | 8.61 | 0.809 | 841 | 0.988 | > 10000
NAMALWA (Burkitt lymphoma, suspension) | 0.705 | 42.2 | 0.474 | 2.68 | 0.98 | > 2000 | 0.977 | > 10000
NB1 (neuroblastoma, semi-adherent) | 0.889 | > 200 | 0.733 | 15.7 | 0.951 | > 2000 | 0.982 | > 10000

Cell Line | AUC (Methotrexate) | IC50 (Methotrexate) [nM] | AUC (SN-38) | IC50 (SN-38) [nM] | AUC (Axitinib) | IC50 (Axitinib) [nM] | AUC (Dabrafenib) | IC50 (Dabrafenib) [nM]
NB5 (neuroblastoma, adherent) | 0.982 | > 200 | 0.424 | 1.93 | 0.91 | > 2000 | 0.953 | > 10000
NB-4 (acute myeloid leukaemia, suspension) | 0.484 | 11.4 | 0.376 | 1.52 | 0.914 | > 2000 | 0.826 | 4640
NCI-H69 (small cell lung carcinoma, suspension) | 0.876 | > 200 | 0.883 | > 50 | 0.931 | > 2000 | 0.975 | > 10000
NCI-H292 (lung adenocarcinoma, adherent) | 0.96 | > 200 | 0.569 | 5.03 | 0.817 | 1440 | 0.846 | 9720
NCI-H716 (large intestine, suspension) | 0.964 | > 200 | 0.957 | > 50 | 0.488 | 115 | 0.946 | > 10000
NCI-H847 (small cell lung carcinoma, adherent) | 0.993 | > 200 | 0.906 | 45.2 | 0.932 | > 2000 | 0.992 | > 10000
NCI-H929 (myeloma, suspension) | 0.743 | 54.5 | 0.699 | 10.3 | 0.959 | > 2000 | 0.853 | 6100
NCI-H1581 (large cell lung carcinoma, semi-adherent) | 0.988 | > 200 | 0.766 | 17 | 0.851 | 1350 | 0.956 | > 10000
NCI-H1975 (lung adenocarcinoma, adherent) | 0.977 | > 200 | 0.89 | > 50 | 0.971 | > 2000 | 0.797 | 5530
NCI-H1993 (lung adenocarcinoma, adherent) | 0.982 | > 200 | 0.88 | > 50 | 0.976 | > 2000 | 0.849 | > 10000
NCI-H2081 (small cell lung carcinoma, suspension) | 0.893 | > 200 | 0.917 | > 50 | 0.912 | > 2000 | 0.988 | > 10000
NCI-N87 (stomach, adherent) | 0.97 | > 200 | 0.782 | 31.6 | 0.979 | > 2000 | 0.85 | > 10000
NCI-SNU-5 (stomach, suspension) | 0.978 | > 200 | 0.642 | 7.79 | 0.965 | > 2000 | 0.97 | > 10000
OPM-2 (myeloma, suspension) | 0.983 | > 200 | 0.992 | > 50 | 0.993 | > 2000 | 0.993 | > 10000
OS-RC-2 (kidney, adherent) | 0.922 | > 200 | 0.74 | 21.1 | 0.923 | > 2000 | 0.959 | > 10000
OVTOKO (ovary, adherent) | 0.836 | 187 | 0.847 | > 50 | 0.892 | > 2000 | 0.813 | 7310
PANC-02-03 (pancreas, adherent) | 0.964 | > 200 | 0.754 | 19.9 | 0.978 | > 2000 | 0.853 | > 10000
PWR-1E (prostate, adherent) | 0.983 | > 200 | 0.499 | 3.11 | 0.838 | 1340 | 0.984 | > 10000
RC-K8 (B-cell lymphoma, suspension) | 0.918 | > 200 | 0.975 | > 50 | 0.993 | > 2000 | 0.978 | > 10000
RCH-ACV (B-cell leukaemia, suspension) | 0.592 | 21.2 | 0.399 | 1.75 | 0.882 | 1480 | 0.981 | > 10000
